The labels stand for the following.
B1: LINE1-mini (parent)
chain: GGCAGAGCUCAACACAGCGUGGCAAAGUGGCUGUGGCUAGACUGCC

Read counts are not given, so values of variants with three or more changes are uncertain.

The series covers variants of B1. The series can be described thus: self-cleavage, relative activity (ratio to wild type); higher = more cleavage; in vitro, sequencing; the parent is a self-cleaving ribozyme.
For GGCAGAGCUCAAGACAGCGUGGCUAAGUGUCUGUGGCUAGGCUGCC, the self-cleavage came to 0.01.
As for GGCAGUGCUCAACACAGCGUGGCAAAGUUGCUGUCGCUAGGAUGCC, the figure is 0.04.
Next, GGCUGAACUCAACACAGCGUGACAAAGUGGCUGUGGCUAGACUGCC: 0.19.
As for GGCCGAGCUCAACACAGCGUGGAAAAGUGGCUGUGGCUAGACUGCG, the figure is 0.11.
In the case of GGCAGAGCUCAACACAGCGUGGCGAAGUGGUUCCGGCUAGACUGCC, the self-cleavage was 0.03.
Next, GGCCGAGCACAACACAGCGUGGCAAAGCGGCUGUGGGUAGACUGCC: 0.56; GGCAGAGCUCAAACCAGCGUGGCACAGUGGCUGUGGCUAGACUGCC: 0.13.
Next, UUCAGAGCUCAACACAGCAUGGCAAAGUGUCUGUGGCUAGACUGCC: 0.07.
As for GGCAGAGCUCAACACAGCGUGGCCAAGUGGGUGUGGCUAGACUUCC, the figure is 0.01.
Consider UGCUCAGCUAAACCCAGCGUGGCAAAGUGGCUGUGGCUAGACUGCC, for which the self-cleavage stood at 0.03.
As for GGCACAGCUCAACACAGCGUGGCAAAGUGGCUGUGGUUAGACUGCG, the figure is 0.02.
Next, GGCAGAGCUCAACCCAGCGUGGCCAAGUGACUGUCGCUAGGCUGCC: 0.03; GGCAGAGCUCAACACAGCGUGGCAAAAUGCCUGUGACUAGACUGCC: 0.1; GGCAGGGCUCAACACAGCGUUGCAAAGUUGCUGUGGCUAAACUGCC: 0.05.
Next, GGCAGAGCUCAACACAGAGUGGCAAAGAGGCAGUGGCUAGACUGCC: 0.02.
In the case of GGCAGUUCUCAACACAGCGUGGCAAAGUGGCUGGGGCUAGACUGCC, the self-cleavage turned out to be 0.03.
Regarding GGUGGAGCUCAACACAGCGUGACAAAGUGGCUGUGGCUUGACUGCC, the self-cleavage came to 0.18.
As for GGAAGAGCUGAACACAGCGCGGCAAAGUGACUGUGGCUAGACUGCC, the figure is 0.06; as for GGCAGAGCUCAACCCUGCGUGGCAAAGUGGCUGUGGCUAGACUGCU, 0.01; as for GGCAGAGCUCAACACAGCUUGGCAAAGUUGCUGUGGCUAGACCACC, 0.06.
Next, GGCACAGCUCAACACAGGGUGGCAAAGUUGCUGUGGCUAGACAGCC: 0.05; GGCAGCGUUCAACACAGCGUGGCAACGUGGGUGUGGCUAGACUGCC: 0.06.
Next, UGCAGAGCUCAACACAGCGUGGCAAAGUGGCUCUGGCUAUACUGCC: 0.02; GGCAGAGCUCUACACACCAUGGCAAAGUGGCUGUGGCUAGACUGCC: 0.18.
In the case of GUCAGAGCUCAACACAGCGUGGGAAAUUGGCUGUGGCUAGACUGCU, the self-cleavage worked out at 0.1.
As for GGGAGAGCUCAACACAUCGUGGCUAAGUGGCUGUGGCUAGACUGCC, the figure is 0.18.
For the variant GGCAGAGCCCAGCACAGCUUGGCAAAGUGGCCGUGGCUAGACUGCC, the self-cleavage stood at 0.01.
Next, GGCAGAGCUCAACACAUCGUGGCAAAGUGGCUGUGGCUAGAUCGCG: 0.1; GGCAGAGCUCACCACAGCGUGGCAAAGUAGGUGUGGCUUGACUGCC: 0.02.
As for GGCAGAGCUCAACACAGCUUGCCAUAGUGGCUGUGGCUAGACUGCC, the figure is 0.52; as for GGCAAAGCUGAACAAAGCGUGUCAAAGUGGCGGUGGCUAGACUUGC, 0.01.
Take GGCAGAGAUCAAUACAGCGUGGCAAAGUGGCUGUGGCUAAACUGCC: the self-cleavage came out at 0.4.
As for GGCAGAGCUCAACACACCGUGCCAAAGUGGCUGUGGCUAGACGGCC, the figure is 0.01.
As for GCCAGAGCCCGACACAGCGUGUCAAAGUAGCUGUGGCCAGGCUGCC, the figure is 0.
As to UGCAGUGCUCAACACAGCGUGGCAAAGUGGCUCUGGCUAGACUGCC, the self-cleavage was found to be 0.13.
As for GGCAGAGCUCAACUCACCGUGGCAAAGUGGCUGCGGCUAGACUGCC, the figure is 0.05; as for GGCAGGGCUCAACACAGCGUGGCAAAGUGGCUGUAGCUAGUCUGCC, 0.03.
As for GGCAGAGCUCAAUACAGUGCGGCAAAGUGGCUGUGGCUAGACUGCC, the figure is 0.06; as for GGAAGAGCUCAACACAGCGUGGGAAAGUGGCUAUGGCUAGACUGAC, 0.15; as for GUCAGAGCUCAACACAGCGUGGCAAAGUGGCUGUGACUGGACUGCC, 0.15.
Next, GGCAGAGAUCAGCACAGCGUGGCAAAGUGGCUGUGGUUAGACUUCC: 0.18.
Take GGCAGAGCUCAUCACAGCGUGCCAAAGUGGCUGUGGUUAGUCUGCC: the self-cleavage worked out at 0.
Next, AGCAGAACUCAACACAACGUGGCAAAGUGGCUGUGGCUAGACUGCC: 0.23; GGCAAAGCUCAAUACAACGUGGCAAAAUGGCUGUGGCUAGACUGCC: 0.06.
Next, GGCAGAGCUCACCACAGCGUGGCAAAGAGGCUGUGGCUAGUCUGCC: 0.01.
As for GGCAGAGCUCAAGACGGCGUGGCAAAGUGGCUGCGGCUAGACUGCC, the self-cleavage is 0.02.
As for GGCAGAGCUCAACACAGCGUGACAAAGUGGCUGAGACUAGACUGCU, the figure is 0.03; as for GGCAGAGCUCAACACUGCGUUGCAAAGUGGUUGUGGCUAGACUGCC, 0.02.
Next, GGCAGAGCUCAACUCAGAGUGGCAAAGUGGCUGUGGCUAGUCUGCC: 0.21; GGCAGAGGUCAACACAGCGUGGCAAAGCGGCUUUGGCUAGACUGCC: 0.
Next, GGCAGGACUCAAUACAGCGUGGCAAUGUGGCUGUGGCUAGUCUGCC: 0.07; GGUAUAGCUCUACACAGCGUGGCAAAGGGGCUGUGGCUAGACUGCC: 0.02.
As for GUCAGAGCUCAAUACGUCGUGGCAAAGUGGCUGUGGCUAGACUGCC, the self-cleavage worked out at 0.02.
As for GGCAUAGCUCCUCACAGCUUGGCAAAGUGGCUGUGGCUAGACUGCG, the figure is 0.02; as for GGCAGAGCUAAACACAGCGUGGCAAAAUGGAUGUGGCUAGACAGCC, 0.06.
As for GGCAGAGGGCAACACACCGUGGCAAAGUGGCUGUGGCUAGACUGCC, the figure is 0.04.

Values taken from the RNAGym collection of RNA variant scans (doi:10.7554/elife.90254).
